This note sets out measurements from PubChem BioAssay AID588449 (Broad Institute, 2011).

Some entries of the source have several records that differ or are many. This is not the full list of results. The source may hold further records. Values that stand side by side repeat one measurement across runs, samples, wells, individuals or studies. Brackets tell where a record comes from. A, B and so on number the origins entry by entry.

The target of the assay is Dual specificity tyrosine-phosphorylation-regulated kinase 1A (Rattus norvegicus) (UniProt Q63470). Briefly: Dyrk1A kinase inhibitors, NFAT signaling, dose response, biochemical, cherry-pick, plate reader, 2124-03 (AID 588449). The settings on record: recombinant Dyrk1A, ADP-Glo luminescence, NFATc1 peptide. (In general: In ADP-Glo the light output rises with the ADP produced.)

Consider `CCOC(=O)c1ccc(-c2ccc3ncnc(NCc4ccc(C)o4)c3c2)o1`, for which the AC50 (commonly the midpoint of the concentration-response curve, whichever way the signal moves) was 30.1 nM [sample A] and 1.3 µM [sample B].
